These results are taken from US20210261654A1 (BEIJING BEYOND BIOTECHNOLOGY, published 2021).

To fix the notation:
B1: fusion protein BY19.6 (Fc fusion)
light: DIVMTQTPLSLSVTPGQPASISCRSSRSLVHSRGNTYLHWYLQKPGQSPQLLIYKVSNRFIGVPDRFSGSGSGTDFTLKISRVEAEDVGVYYCSQSTHLPFTFGQGTKVEIKRTVAAPSVFIFPPSDEQLKSGTASVVCLLNNFYPREAKVQWKVDNALQSGNSQESVTEQDSKDSTYSLSSTLTLSKADYEKHKVYACEVTHQGLSSPVTKSFNRGEC
chain: LPAQVAFTPYAPEPGSTCRLREYYDQTAQMCCSKCSPGQHAKVFCTKTSDTVCDSCEDSTYTQLWNWVPECLSCGSRCSSDQVETQACTREQNRICTCRPGWYCALSKQEGCRLCAPLRKCRPGFGVARPGTETSDVVCKPCAPGTFSNTTSSTDICRPHQIDKRV[left out - human IgG4 Fc with S228P (EU numbers)]GGGSGGGGSGGGGSQVQLVQSGAEVKKPGSSVKVSCKASGYSFTDYHIHWVRQAPGQGLEWMGVINPMYGTTDYNQRFKGRVTITADESTSTAYMELSSLRSEDTAVYYCARYDYFTGTGVYWGQGTLVTVSSASTKGPSVFPLAPCSRSTSESTAALGCLVKDYFPEPVTVSWNSGALTSGVHTFPAVLQSSGLYSLSSVVTVPSSSLGTKTYTCNVDHKPSNTKVDKRVES
notes: also called BY19.6(κ, IgG1)
B2: fusion protein BY19.3 (other)
light: B1 light
heavy: QVQLVQSGAEVKKPGSSVKVSCKASGYSFTDYHIHWVRQAPGQGLEWMGVINPMYGTTDYNQRFKGRVTITADESTSTAYMELSSLRSEDTAVYYCARYDYFTGTGVYWGQGTLVTVSSASTKGPSVFPLAPCSRSTSESTAALGCLVKDYFPEPVTVSWNSGALTSGVHTFPAVLQSSGLYSLSSVVTVPSSSLGTKTYTCNVDHKPSNTKVDKRV[left out - human IgG4 Fc with S228P (EU numbers)]GGGSGGGGSGGGGSLPAQVAFTPYAPEPGSTCRLREYYDQTAQMCCSKCSPGQHAKVFCTKTSDTVCDSCEDSTYTQLWNWVPECLSCGSRCSSDQVETQACTREQNRICTCRPGWYCALSKQEGCRLCAPLRKCRPGFGVARPGTETSDVVCKPCAPGTFSNTTSSTDICRPHQI
notes: Expressed in 293F cells; also called BY19.3 protein; BY19.3(κ, IgG4)
B3: fusion protein BY19.7 (Fc fusion)
chain: LPAQVAFTPYAPEPGSTCRLREYYDQTAQMCCSKCSPGQHAKVFCTKTSDTVCDSCEDSTYTQLWNWVPECLSCGSRCSSDQVETQACTREQNRICTCRPGWYCALSKQEGCRLCAPLRKCRPGFGVARPGTETSDVVCKPCAPGTFSNTTSSTDICRPHQIDKRV[left out - human IgG4 Fc with S228P (EU numbers)]GGGSGGGGSGGGGSDIVMTQTPLSLSVTPGQPASISCRSSRSLVHSRGNTYLHWYLQKPGQSPQLLIYKVSNRFIGVPDRFSGSGSGTDFTLKISRVEAEDVGVYYCSQSTHLPFTFGQGTKVEIKRTVAAPSVFIFPPSDEQLKSGTASVVCLLNNFYPREAKVQWKVDNALQSGNSQESVTEQDSKDSTYSLSSTLTLSKADYEKHKVYACEVTHQGLSSPVTKSFNRGEC
heavy: QVQLVQSGAEVKKPGSSVKVSCKASGYSFTDYHIHWVRQAPGQGLEWMGVINPMYGTTDYNQRFKGRVTITADESTSTAYMELSSLRSEDTAVYYCARYDYFTGTGVYWGQGTLVTVSSASTKGPSVFPLAPCSRSTSESTAALGCLVKDYFPEPVTVSWNSGALTSGVHTFPAVLQSSGLYSLSSVVTVPSSSLGTKTYTCNVDHKPSNTKVDKRVES
notes: also called BY19.7(κ, IgG1)

The target of this test is T1, Recombinant human TNF-α (Sino Biological Inc., catalog number: 10602-HNAE) (human, UniProt P01375 part only).
T1 construct: Bought protein; also called recombinant human TNF-α protein
T1 sequence (P01375 77-233 limits assumed): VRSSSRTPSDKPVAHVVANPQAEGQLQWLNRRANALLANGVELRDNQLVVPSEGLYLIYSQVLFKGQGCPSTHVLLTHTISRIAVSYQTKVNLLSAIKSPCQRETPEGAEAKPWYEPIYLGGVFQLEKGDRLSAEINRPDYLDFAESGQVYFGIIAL
Description: SPR (Biacore T100, 25 C); protein captured by anti-IgG on CM5 chip, antigen injected 7-600 nM. (In general: Surface plasmon resonance follows binding to a sensor surface in real time, without labels.)
Take B1: the dissociation constant (Kd) came out at 7.27 pM.
The same measure for B2: 47.8 pM; for B3: 7.25 pM.

Usually Kd stands for a measure of binding affinity in units of concentration.
